Results: the supplement of paper PMC8728848
The other results are listed elsewhere or left out.

Experiments:
Test in all cases: glycan array binding signal (z-score within array); higher = stronger binding
Settings in all cases: glycan notation: IUPAC condensed, linker removed
[1] = molecular target: Gal(b1-4)GlcNAc(b1-2)[Gal(b1-4)GlcNAc(b1-6)]Man(a1-6)[Gal(b1-4)GlcNAc(b1-2)Man(a1-3)]Man(b1-4)GlcNAc(b1-4)[Fuc(a1-6)]GlcNAc
How it was run: (§1)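 From the Consortium for Functional Glycomics database, 3228 arrays were curated, keeping only those whose protein sequence was available. Binding is given as a within-array Z-score averaged across arrays sharing a protein sequence and across linkers. Negative Z-scores can be read as non-binding.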

[2] = molecular target: Gal(b1-4)GlcNAc(b1-2)[Gal(b1-4)GlcNAc(b1-6)]Man(a1-6)[GlcNAc(b1-4)][Gal(b1-4)GlcNAc(b1-2)Man(a1-3)]Man(b1-4)GlcNAc(b1-4)GlcNAc
How it was run: as §1

[3] = molecular target: Gal(b1-4)GlcNAc(b1-2)[Gal(b1-4)GlcNAc(b1-6)]Man(a1-6)[GlcNAc(b1-4)][Gal(b1-4)GlcNAc(b1-2)[Gal(b1-4)GlcNAc(b1-4)]Man(a1-3)]Man(b1-4)GlcNAc(b1-4)[Fuc(a1-6)]GlcNAc
How it was run: as §1

[4] = molecular target: Gal(b1-4)GlcNAc(b1-3)Gal(b1-3)GalNAc
How it was run: as §1

[5] = molecular target: Gal(b1-4)GlcNAc(b1-3)Gal(b1-3)GlcNAc
How it was run: as §1

[6] = molecular target: Gal(b1-4)GlcNAc(b1-3)Gal(b1-4)Glc
How it was run: as §1

[7] = molecular target: Gal(b1-4)GlcNAc(b1-3)Gal(b1-4)GlcNAc
How it was run: as §1

[8] = molecular target: Gal(b1-4)GlcNAc(b1-3)Gal(b1-4)GlcNAc(b1-2)Man(a1-3)[Gal(b1-4)GlcNAc(b1-3)Gal(b1-4)GlcNAc(b1-2)Man(a1-6)]Man(b1-4)GlcNAc(b1-4)GlcNAc
How it was run: as §1

[9] = molecular target: Gal(b1-4)GlcNAc(b1-3)Gal(b1-4)GlcNAc(b1-2)Man(a1-3)[Gal(b1-4)GlcNAc(b1-3)Gal(b1-4)GlcNAc(b1-2)Man(a1-6)]Man(b1-4)GlcNAc(b1-4)[Fuc(a1-6)]GlcNAc
How it was run: as §1

[10] = molecular target: Gal(b1-4)GlcNAc(b1-3)Gal(b1-4)GlcNAc(b1-2)[Gal(b1-4)GlcNAc(b1-3)Gal(b1-4)GlcNAc(b1-6)]Man(a1-6)[Gal(b1-4)GlcNAc(b1-3)Gal(b1-4)GlcNAc(b1-2)Man(a1-3)]Man(b1-4)GlcNAc(b1-4)GlcNAc
How it was run: as §1

[11] = molecular target: Gal(b1-4)GlcNAc(b1-3)Gal(b1-4)GlcNAc(b1-2)[Gal(b1-4)GlcNAc(b1-3)Gal(b1-4)GlcNAc(b1-6)]Man(a1-6)[Gal(b1-4)GlcNAc(b1-3)Gal(b1-4)GlcNAc(b1-2)Man(a1-3)]Man(b1-4)GlcNAc(b1-4)[Fuc(a1-6)]GlcNAc
How it was run: as §1

[12] = molecular target: Gal(b1-4)GlcNAc(b1-3)Gal(b1-4)GlcNAc(b1-3)Gal(b1-4)GlcNAc
How it was run: as §1

[13] = molecular target: Gal(b1-4)GlcNAc(b1-3)Gal(b1-4)GlcNAc(b1-3)Gal(b1-4)GlcNAc(b1-2)Man(a1-3)[Gal(b1-4)GlcNAc(b1-3)Gal(b1-4)GlcNAc(b1-3)Gal(b1-4)GlcNAc(b1-2)Man(a1-6)]Man(b1-4)GlcNAc(b1-4)GlcNAc
How it was run: as §1

[14] = molecular target: Gal(b1-4)GlcNAc(b1-3)Gal(b1-4)GlcNAc(b1-3)Gal(b1-4)GlcNAc(b1-2)Man(a1-3)[Gal(b1-4)GlcNAc(b1-3)Gal(b1-4)GlcNAc(b1-3)Gal(b1-4)GlcNAc(b1-2)Man(a1-6)]Man(b1-4)GlcNAc(b1-4)[Fuc(a1-6)]GlcNAc
How it was run: as §1

[15] = molecular target: Gal(b1-4)GlcNAc(b1-3)Gal(b1-4)GlcNAc(b1-3)Gal(b1-4)GlcNAc(b1-2)[Gal(b1-4)GlcNAc(b1-3)Gal(b1-4)GlcNAc(b1-3)Gal(b1-4)GlcNAc(b1-6)]Man(a1-6)[Gal(b1-4)GlcNAc(b1-3)Gal(b1-4)GlcNAc(b1-3)Gal(b1-4)GlcNAc(b1-2)Man(a1-3)]Man(b1-4)GlcNAc(b1-4)[Fuc(a1-6)]GlcNAc
How it was run: as §1

[16] = molecular target: Gal(b1-4)GlcNAc(b1-3)Gal(b1-4)GlcNAc(b1-3)Gal(b1-4)GlcNAc(b1-3)Gal(b1-4)GlcNAc(b1-2)Man(a1-3)[Gal(b1-4)GlcNAc(b1-3)Gal(b1-4)GlcNAc(b1-3)Gal(b1-4)GlcNAc(b1-3)Gal(b1-4)GlcNAc(b1-2)Man(a1-6)]Man(b1-4)GlcNAc(b1-4)GlcNAc
How it was run: as §1

[17] = molecular target: Gal(b1-4)GlcNAc(b1-3)Gal(b1-4)GlcNAc(b1-3)Gal(b1-4)GlcNAc(b1-3)Gal(b1-4)GlcNAc(b1-2)Man(a1-3)[Gal(b1-4)GlcNAc(b1-3)Gal(b1-4)GlcNAc(b1-3)Gal(b1-4)GlcNAc(b1-3)Gal(b1-4)GlcNAc(b1-2)Man(a1-6)]Man(b1-4)GlcNAc(b1-4)[Fuc(a1-6)]GlcNAc
How it was run: as §1

[18] = molecular target: Gal(b1-4)GlcNAc(b1-3)Gal(b1-4)GlcNAc(b1-3)Gal(b1-4)GlcNAc(b1-3)Gal(b1-4)GlcNAc(b1-2)[Gal(b1-4)GlcNAc(b1-3)Gal(b1-4)GlcNAc(b1-3)Gal(b1-4)GlcNAc(b1-3)Gal(b1-4)GlcNAc(b1-6)]Man(a1-6)[Gal(b1-4)GlcNAc(b1-3)Gal(b1-4)GlcNAc(b1-3)Gal(b1-4)GlcNAc(b1-3)Gal(b1-4)GlcNAc(b1-2)Man(a1-3)]Man(b1-4)GlcNAc(b1-4)[Fuc(a1-6)]GlcNAc
How it was run: as §1

[19] = molecular target: Gal(b1-4)GlcNAc(b1-3)Gal(b1-4)GlcNAc(b1-3)Gal(b1-4)GlcNAc(b1-3)Gal(b1-4)GlcNAc(b1-3)Gal(b1-4)GlcNAc(b1-2)Man(a1-3)[Gal(b1-4)GlcNAc(b1-3)Gal(b1-4)GlcNAc(b1-3)Gal(b1-4)GlcNAc(b1-3)Gal(b1-4)GlcNAc(b1-3)Gal(b1-4)GlcNAc(b1-2)Man(a1-6)]Man(b1-4)GlcNAc(b1-4)GlcNAc
How it was run: as §1

[20] = molecular target: Gal(b1-4)GlcNAc(b1-3)Gal(b1-4)GlcNAc(b1-3)Gal(b1-4)GlcNAc(b1-3)Gal(b1-4)GlcNAc(b1-3)Gal(b1-4)GlcNAc(b1-2)Man(a1-3)[Gal(b1-4)GlcNAc(b1-3)Gal(b1-4)GlcNAc(b1-3)Gal(b1-4)GlcNAc(b1-3)Gal(b1-4)GlcNAc(b1-3)Gal(b1-4)GlcNAc(b1-2)Man(a1-6)]Man(b1-4)GlcNAc(b1-4)[Fuc(a1-6)]GlcNAc
How it was run: as §1

[21] = molecular target: Gal(b1-4)GlcNAc(b1-3)Gal(b1-4)GlcNAc(b1-3)Gal(b1-4)GlcNAc(b1-3)Gal(b1-4)GlcNAc(b1-3)Gal(b1-4)GlcNAc(b1-2)[Gal(b1-4)GlcNAc(b1-3)Gal(b1-4)GlcNAc(b1-3)Gal(b1-4)GlcNAc(b1-3)Gal(b1-4)GlcNAc(b1-3)Gal(b1-4)GlcNAc(b1-6)]Man(a1-6)[Gal(b1-4)GlcNAc(b1-3)Gal(b1-4)GlcNAc(b1-3)Gal(b1-4)GlcNAc(b1-3)Gal(b1-4)GlcNAc(b1-3)Gal(b1-4)GlcNAc(b1-2)Man(a1-3)]Man(b1-4)GlcNAc(b1-4)[Fuc(a1-6)]GlcNAc
How it was run: as §1

[22] = molecular target: Gal(b1-4)GlcNAc(b1-3)Gal(b1-4)GlcNAc(b1-3)Gal(b1-4)GlcNAc(b1-3)Gal(b1-4)GlcNAc(b1-3)Gal(b1-4)GlcNAc(b1-3)Gal(b1-4)GlcNAc(b1-2)Man(a1-3)[Gal(b1-4)GlcNAc(b1-3)Gal(b1-4)GlcNAc(b1-3)Gal(b1-4)GlcNAc(b1-3)Gal(b1-4)GlcNAc(b1-3)Gal(b1-4)GlcNAc(b1-3)Gal(b1-4)GlcNAc(b1-2)Man(a1-6)]Man(b1-4)GlcNAc(b1-4)GlcNAc
How it was run: as §1

[23] = molecular target: Gal(b1-4)GlcNAc(b1-3)Gal(b1-4)GlcNAc(b1-3)GalNAc
How it was run: as §1

B1: Clec2 (Mus musculus), Q9JL99 (protein)
chain: MQDEDGYITLNIKPRKQALSSAEPASSWWRVMALVLLISSMGLVVGLVALGIMSVTQQKYLLAEKENLSATLQQLAKKFCQELIRQSEIKTKSTFEHKCSPCATKWRYHGDSCYGFFRRNLTWEESKQYCTEQNATLVKTASQSTLDYIAERITSVRWIGLSRQNSKKDWMWEDSSVLRKNGINLSGNTEENMNCAYLHNGKIHPASCKERHYLICERNAGMTRVDQLL
- glycan array binding signal (z-score) [1]: -0.584
- glycan array binding signal (z-score) [2]: -0.038
- glycan array binding signal (z-score) [3]: -0.64
- glycan array binding signal (z-score) [4]: -0.751
- glycan array binding signal (z-score) [5]: -0.672
- glycan array binding signal (z-score) [6]: -0.394
- glycan array binding signal (z-score) [7]: -0.97
- glycan array binding signal (z-score) [8]: 1.8
- glycan array binding signal (z-score) [9]: -0.369
- glycan array binding signal (z-score) [10]: 2.46
- glycan array binding signal (z-score) [11]: -0.429
- glycan array binding signal (z-score) [12]: -0.357
- glycan array binding signal (z-score) [13]: -0.018
- glycan array binding signal (z-score) [14]: -0.371
- glycan array binding signal (z-score) [15]: -0.517
- glycan array binding signal (z-score) [16]: -0.166
- glycan array binding signal (z-score) [17]: -0.457
- glycan array binding signal (z-score) [18]: -0.401
- glycan array binding signal (z-score) [19]: -0.216
- glycan array binding signal (z-score) [20]: -0.583
- glycan array binding signal (z-score) [21]: -0.575
- glycan array binding signal (z-score) [22]: -0.516
- glycan array binding signal (z-score) [23]: -0.51
